Results reported in patent US20240024475A1 (CURE GENETICS, published 2024).
Like-named read-outs stand apart in the source and are kept apart here.

T1: CD70 on kidney cancer cell line 786-0 (expressing CD70) (human, UniProt P32970 1-193)
T1 construct: whole, on cells
T1 sequence (looked up): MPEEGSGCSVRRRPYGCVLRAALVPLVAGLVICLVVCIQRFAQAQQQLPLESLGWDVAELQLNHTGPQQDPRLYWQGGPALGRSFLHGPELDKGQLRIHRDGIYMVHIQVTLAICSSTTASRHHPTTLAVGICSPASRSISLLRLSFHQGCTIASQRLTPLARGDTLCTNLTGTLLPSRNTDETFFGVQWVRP

T2: recombinant human CD70 protein (Acrobiosystems: CDL-H82Q9) (human, UniProt P32970 39-193)
T2 construct: Bought from Acrobiosystems; The whole natural entry is named; also called human CD70His fusion protein; recombinant human CD70 antigen having a C-terminal human IgG Fc tag
T2 sequence (looked up): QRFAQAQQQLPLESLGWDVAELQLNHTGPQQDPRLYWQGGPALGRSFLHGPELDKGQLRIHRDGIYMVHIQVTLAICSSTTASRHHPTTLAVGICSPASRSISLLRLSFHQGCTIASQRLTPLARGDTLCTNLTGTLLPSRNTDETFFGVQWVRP


What was measured:
[1] = target: T1, CD70 on kidney cancer cell line 786-0 …; test: flow cytometry: percentage of positive cells, 786-O cells stained with the sdAb-Fc protein at varied concentration
[2] = target: T2, recombinant human CD70 protein …; test: SPR, Biacore T200, Protein A chip, sdAb-Fc against CD70 protein
Text: The C-terminus of the amino acid sequences of CD70-sdAb-1E, CD70-sdAb-1G, CD70-sdAb-3H and CD70-sdAb-L2 were respectively linked to a human Fc domain (as shown in SEQ ID NO: 94), and these 4 proteins fused with Fc were expressed in HEK293 cells. After purification, the affinity of these 4 sdAb-Fc to CD70 protein (ACRO Biosystems, CDL-H82Q9) was detected using Biacore T200 (GE) and Protein A chip (GE, Cat#29127556).

[3] = target: T1, CD70 on kidney cancer cell line 786-0 …; test: flow cytometry: percentage of positive cells, 786-O cells stained with the sdAb-Fc protein at varied concentration; remark: listed apart in the source
[4] = target: T1, CD70 on kidney cancer cell line 786-0 …; test: as above; remark: listed apart in the source
[5] = target: T1, CD70 on kidney cancer cell line 786-0 …; test: as above; remark: listed apart in the source

EC50 [1] [µg/mL]	Kd [2] [nM]	EC50 [3] [µg/mL]	EC50 [4] [µg/mL]	EC50 [5] [µg/mL]	Binder
5.7	0.265				sdAb-Fc of CD70-sdAb-1G (CD70-sdAb-1G linked at its C-terminus to a human Fc domain) (Fc fusion, Expressed in HEK293 cells and purified; No linker between VHH and Fc is mentioned) QLQLVESGGGLVQLGGSLTLSCTASGIIFNSDYVGWYRQAPGSDRELVALTSNMRTNYADSVEGRFTISRDNAKNTVYLQMNSLKPEDTAVYYCNVNRMTSYGPRDYWGQGTQVTVSS[human IgG1 Fc with changes not listed]
	0.3	10.8			sdAb-Fc of CD70-sdAb-3H (CD70-sdAb-3H linked at its C-terminus to a human Fc domain) (Fc fusion, Expressed in HEK293 cells and purified; No linker between VHH and Fc is mentioned) QLQLVESGGGLVQPGGSLRLSCAASGNILRFNAVGWYRQAPGKQRDLVAAMAGARTNYADSVEGRFTISGNNANNTVYLQMNSLKPEDTGVYYCGADRVYGPPYEYGGRGTQVTVLS[human IgG1 Fc with changes not listed]
	0.976		11.7		sdAb-Fc of CD70-sdAb-L2 (CD70-sdAb-L2 linked at its C-terminus to a human Fc domain) (Fc fusion, Expressed in HEK293 cells and purified; No linker between VHH and Fc is mentioned) EVQLVESGGGLVQAGGSLRLSCAASGFTVDDYVIGWFRQAPGKEHEGVSCISSNDGSTWYADSVKGRFTISSDNAKNTMYLQMNSLKPEDTAVYYCAAKYAPYGLEYWEGGMDYWGKGTLVTVSS[human IgG1 Fc with changes not listed]
	0.168			14.1	sdAb-Fc of CD70-sdAb-1E (CD70-sdAb-1E linked at its C-terminus to a human Fc domain) (Fc fusion, Expressed in HEK293 cells and purified; No linker between VHH and Fc is mentioned) EVQVVESGGGLVQAGGSLRLSCAASGFAFDDYAIGWFRQAPGKEQERVSCMSSSDGSTYYADSVKGRFTISSDNAKNTVYLQMNSLKPEDTAVYYCAAGVNYYREDGCPGALDYWGQGTQVTVSS[human IgG1 Fc with changes not listed]
